Counter-ions that a name gives are not always drawn. Whole data set: some 1,900 compounds, median “cell viability of compound + 1 nM pemigatinib relative to pemigatinib-only (DMSO) wells” near 0.95, cut for the lowest 2% near 0.22. This is one part of the list.

The assay concerns PDC-DUC18828. The assay can be described thus: cell viability of compound + 1 nM pemigatinib relative to pemigatinib-only (DMSO) wells (fraction); PDC-DUC18828 is a patient-derived cholangiocarcinoma cell line; higher = less growth inhibition. The conditions noted are these: first compound 1 µM; pemigatinib concentration 1 nM; 72 h. How it is done:
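Selleck Bioactive library screen in the patient-derived FGFR2 fusion-positive ICC cell line PDC-DUC18828 (500 cells/well). Each compound was tested at 1 uM with 1 nM pemigatinib, in triplicate, for 72 h. Viability was read by CellTiter-Glo and normalised to plate DMSO controls. Value is the paper's averaged normalised viability.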
Regarding `COC(=O)c1ccc2c(c1)NC(=O)/C2=C(\Nc1ccc(N(C)C(=O)CN2CCN(C)CC2)cc1)c1ccccc1` [Nintedanib (BIBF 1120)] + CCN1C(=O)N(c2c(F)c(OC)cc(OC)c2F)Cc2cnc3[nH]c(CN4CCOCC4)cc3c21 [pemigatinib], the cell viability was 0.955. With `O=C(O[C@@H]1Cc2c(O)cc(O)cc2O[C@@H]1c1cc(O)c(O)c(O)c1)c1cc(O)c(O)c(O)c1` [(-)-Epigallocatechin Gallate] + CCN1C(=O)N(c2c(F)c(OC)cc(OC)c2F)Cc2cnc3[nH]c(CN4CCOCC4)cc3c21 [pemigatinib], the cell viability was determined as 1.01. To `CC(C)C[C@H](NC(=O)CNC(=O)c1cc(Cl)ccc1Cl)B(O)O` + CCN1C(=O)N(c2c(F)c(OC)cc(OC)c2F)Cc2cnc3[nH]c(CN4CCOCC4)cc3c21 [pemigatinib] belongs 0.0167; to `C=CCc1ccc(O)c(-c2ccc(O)c(CC=C)c2)c1` [Honokiol] + CCN1C(=O)N(c2c(F)c(OC)cc(OC)c2F)Cc2cnc3[nH]c(CN4CCOCC4)cc3c21 [pemigatinib], 0.942. Then `CNC(=C[N+](=O)[O-])NCCSCc1ccc(CN(C)C)o1` [Ranitidine] + CCN1C(=O)N(c2c(F)c(OC)cc(OC)c2F)Cc2cnc3[nH]c(CN4CCOCC4)cc3c21 [pemigatinib], with 0.973; and `COc1cc2c(cc1OC)-c1cc3ccc(OC)c(OC)c3c[n+]1CC2` [Palmatine chloride] + CCN1C(=O)N(c2c(F)c(OC)cc(OC)c2F)Cc2cnc3[nH]c(CN4CCOCC4)cc3c21 [pemigatinib], with 0.91; and `COC(=O)[C@H]1[C@H]2C[C@@H]3c4[nH]c5cc(OC)ccc5c4CCN3C[C@H]2C[C@@H](OC(=O)c2cc(OC)c(OC)c(OC)c2)[C@@H]1OC` [Reserpine] + CCN1C(=O)N(c2c(F)c(OC)cc(OC)c2F)Cc2cnc3[nH]c(CN4CCOCC4)cc3c21 [pemigatinib], with 1.04. To `CSc1cccc(Nc2ncc3cc(-c4c(Cl)cccc4Cl)c(=O)n(C)c3n2)c1` + CCN1C(=O)N(c2c(F)c(OC)cc(OC)c2F)Cc2cnc3[nH]c(CN4CCOCC4)cc3c21 [pemigatinib] belongs 0.913; to `O=C(O)c1ccc(Nc2ncc3c(n2)-c2ccc(Cl)cc2C(c2c(F)cccc2F)=NC3)cc1` + CCN1C(=O)N(c2c(F)c(OC)cc(OC)c2F)Cc2cnc3[nH]c(CN4CCOCC4)cc3c21 [pemigatinib], 0.44. With `Cc1cc(N2CCOCC2)ccc1Nc1nc(NC2CCCCC2)c2[nH]cnc2n1` + CCN1C(=O)N(c2c(F)c(OC)cc(OC)c2F)Cc2cnc3[nH]c(CN4CCOCC4)cc3c21 [pemigatinib], the cell viability was found to be 0.8. Then `C[C@H](NC(=O)Cc1cc(F)cc(F)c1)C(=O)N[C@@H]1C(=O)N(C)c2ccccc2-c2ccccc21` + CCN1C(=O)N(c2c(F)c(OC)cc(OC)c2F)Cc2cnc3[nH]c(CN4CCOCC4)cc3c21 [pemigatinib], with 0.972; and `O=c1c(-c2ccc(O)cc2)coc2cc(O)cc(O)c12` [Genistein] + CCN1C(=O)N(c2c(F)c(OC)cc(OC)c2F)Cc2cnc3[nH]c(CN4CCOCC4)cc3c21 [pemigatinib], with 0.937. Then `OCc1ccc(-c2ccc(-c3ccc(CO)s3)o2)s1` + CCN1C(=O)N(c2c(F)c(OC)cc(OC)c2F)Cc2cnc3[nH]c(CN4CCOCC4)cc3c21 [pemigatinib], with 0.883; and `C[C@@H]1CC(=O)NN=C1c1ccc(NN=C(C#N)C#N)cc1` [Levosimendan] + CCN1C(=O)N(c2c(F)c(OC)cc(OC)c2F)Cc2cnc3[nH]c(CN4CCOCC4)cc3c21 [pemigatinib], with 0.928.

As for `CN(C)CCCNC(=O)c1ccc(-c2cc(O)c3ncccc3c2)cc1` + CCN1C(=O)N(c2c(F)c(OC)cc(OC)c2F)Cc2cnc3[nH]c(CN4CCOCC4)cc3c21 [pemigatinib], the cell viability turned out to be 1.04. `O=C(O)Cc1ccccc1Nc1c(Cl)cccc1Cl` [Diclofenac Potassium] + CCN1C(=O)N(c2c(F)c(OC)cc(OC)c2F)Cc2cnc3[nH]c(CN4CCOCC4)cc3c21 [pemigatinib]: the cell viability was 0.921. With `O=C(O)Cc1ccccc1Nc1c(Cl)cccc1Cl` [Diclofenac Diethylamine] + CCN1C(=O)N(c2c(F)c(OC)cc(OC)c2F)Cc2cnc3[nH]c(CN4CCOCC4)cc3c21 [pemigatinib], the cell viability was 0.926.

Regarding `O=C(O)Cc1ccccc1Nc1c(Cl)cccc1Cl` [Diclofenac Sodium] + CCN1C(=O)N(c2c(F)c(OC)cc(OC)c2F)Cc2cnc3[nH]c(CN4CCOCC4)cc3c21 [pemigatinib], the cell viability is 0.981. To `Cc1c(NC(=O)c2ccc(C(C)(C)C)cc2)cccc1-c1cn(C)c(=O)c(Nc2ccc(C(=O)N3CCOCC3)cc2)n1` + CCN1C(=O)N(c2c(F)c(OC)cc(OC)c2F)Cc2cnc3[nH]c(CN4CCOCC4)cc3c21 [pemigatinib] belongs 0.918; to `C[C@@H](c1ncncc1F)[C@](O)(Cn1cncn1)c1ccc(F)cc1F` [Voriconazole] + CCN1C(=O)N(c2c(F)c(OC)cc(OC)c2F)Cc2cnc3[nH]c(CN4CCOCC4)cc3c21 [pemigatinib], 1.02; to `Cc1cncc(CN2CCC(=C3c4ccc(Cl)cc4CCc4cccnc43)CC2)c1` [Rupatadine Fumarate] + CCN1C(=O)N(c2c(F)c(OC)cc(OC)c2F)Cc2cnc3[nH]c(CN4CCOCC4)cc3c21 [pemigatinib], 0.953. Then `CS(=O)(=O)c1ccc([C@@H](O)[C@@H](CO)NC(=O)C(Cl)Cl)cc1` [Thiamphenicol] + CCN1C(=O)N(c2c(F)c(OC)cc(OC)c2F)Cc2cnc3[nH]c(CN4CCOCC4)cc3c21 [pemigatinib], with 0.98; and `O=c1[nH]cc(F)c(=O)[nH]1` [Fluorouracil (5-Fluoracil, 5-FU)] + CCN1C(=O)N(c2c(F)c(OC)cc(OC)c2F)Cc2cnc3[nH]c(CN4CCOCC4)cc3c21 [pemigatinib], with 0.888. Then `CNC(=O)c1ccccc1Oc1nc(Nc2cc(OC)c(OC)c(OC)c2)ncc1Br` + CCN1C(=O)N(c2c(F)c(OC)cc(OC)c2F)Cc2cnc3[nH]c(CN4CCOCC4)cc3c21 [pemigatinib], with 0.906. Turning to `O=c1ncn2nc(Sc3ccc(F)cc3F)ccc2c1-c1c(Cl)cccc1Cl` + CCN1C(=O)N(c2c(F)c(OC)cc(OC)c2F)Cc2cnc3[nH]c(CN4CCOCC4)cc3c21 [pemigatinib], the cell viability came to 0.979.

As to `C[C@]12C=CC(=O)C=C1CC[C@@H]1[C@@H]2[C@@H](O)C[C@@]2(C)[C@H]1CC[C@]2(O)C(=O)CO` [Prednisolone] + CCN1C(=O)N(c2c(F)c(OC)cc(OC)c2F)Cc2cnc3[nH]c(CN4CCOCC4)cc3c21 [pemigatinib], the cell viability stood at 0.931. For `N=c1ccn2c(n1)O[C@H]1[C@H](O)[C@@H](CO)O[C@H]12` [Cyclocytidine HCl] + CCN1C(=O)N(c2c(F)c(OC)cc(OC)c2F)Cc2cnc3[nH]c(CN4CCOCC4)cc3c21 [pemigatinib], the cell viability turned out to be 0.614. Then `CNC(=O)c1ccc2cc([C@@]3(O)CCn4cncc43)ccc2c1` [TAK-700 (Orteronel)] + CCN1C(=O)N(c2c(F)c(OC)cc(OC)c2F)Cc2cnc3[nH]c(CN4CCOCC4)cc3c21 [pemigatinib], with 1.07. To `CC(=O)Oc1cc(C(F)(F)F)ccc1C(=O)O` [Triflusal] + CCN1C(=O)N(c2c(F)c(OC)cc(OC)c2F)Cc2cnc3[nH]c(CN4CCOCC4)cc3c21 [pemigatinib] belongs 0.902; to `CC(C)CCN1c2nc(Nc3cc(F)c(O)c(F)c3)ncc2N(C)C(=O)C1C` (stereo not drawn) + CCN1C(=O)N(c2c(F)c(OC)cc(OC)c2F)Cc2cnc3[nH]c(CN4CCOCC4)cc3c21 [pemigatinib], 0.714. As to `O=C1NC(=O)/C(=C/c2ccc(-c3ccc(F)cc3O)o2)S1` + CCN1C(=O)N(c2c(F)c(OC)cc(OC)c2F)Cc2cnc3[nH]c(CN4CCOCC4)cc3c21 [pemigatinib], the cell viability was 0.979. Then `Cc1cnc(Nc2ccc(N3CCN(C)CC3)cc2)nc1Nc1cccc(S(=O)(=O)NC(C)(C)C)c1` + CCN1C(=O)N(c2c(F)c(OC)cc(OC)c2F)Cc2cnc3[nH]c(CN4CCOCC4)cc3c21 [pemigatinib], with 0.78; and `OC[C@@H](O)[C@@H](O)CO` [Erythritol] + CCN1C(=O)N(c2c(F)c(OC)cc(OC)c2F)Cc2cnc3[nH]c(CN4CCOCC4)cc3c21 [pemigatinib], with 0.953. Then `CCn1c(=O)c(-c2ccc(-c3cncs3)cc2Cl)cc2cnc(Nc3ccc(N4CCN(C)CC4)cc3)nc21` + CCN1C(=O)N(c2c(F)c(OC)cc(OC)c2F)Cc2cnc3[nH]c(CN4CCOCC4)cc3c21 [pemigatinib], with 1.01; and `Nc1cccc(S(=O)(=O)N2CCCN(S(=O)(=O)c3ccc4c(c3)OCCO4)CC2)c1` + CCN1C(=O)N(c2c(F)c(OC)cc(OC)c2F)Cc2cnc3[nH]c(CN4CCOCC4)cc3c21 [pemigatinib], with 1.01; and `CC[C@H](C)n1cc(C)c2c(C(=O)NCc3c(C)cc(C)[nH]c3=O)cc(-c3ccc(N4CCNCC4)nc3)cc21` + CCN1C(=O)N(c2c(F)c(OC)cc(OC)c2F)Cc2cnc3[nH]c(CN4CCOCC4)cc3c21 [pemigatinib], with 0.917. `Cc1cccc(-c2[nH]c(C(C)(C)C)nc2-c2ccc3nccnc3c2)n1` + CCN1C(=O)N(c2c(F)c(OC)cc(OC)c2F)Cc2cnc3[nH]c(CN4CCOCC4)cc3c21 [pemigatinib]: the cell viability was determined as 1.02. To `CC[C@@]1(O)C(=O)OCc2c1cc1n(c2=O)Cc2cc3cc(O)ccc3nc2-1` [(S)-10-Hydroxycamptothecin] + CCN1C(=O)N(c2c(F)c(OC)cc(OC)c2F)Cc2cnc3[nH]c(CN4CCOCC4)cc3c21 [pemigatinib] belongs 0.1.

The values are drawn from the supplement of paper PMC9588766.
